# Source: PubChem BioAssay AID1345082 (National Center for Advancing Translational Sciences (NCATS), 2018)
# Out of some 94,000 compounds screened, about 4,000 (4.3%) were called active. Inconclusive means that the source gave no clear call. Such entries were picked first, then a sample of the others. The call rests on the fitted dose curve; in most records, active means well fitted inhibition curve with a large enough effect; inconclusive means small, poorly fitted or top-dose-only effect; inactive means no such curve, though single readings can be large or run the other way. A potency beside an inconclusive call is a rough fit, not a confirmed value.
# Test: Cytotoxic Profiling in NIH 3T3 Cell Line of Diverse Libraries Using Quantitative High-Throughput Screening; further: nearly all actives have a fitted effect of over 55% in size
# Details: NIH 3T3 viability, CellTiter-Glo ATP luminescence, 48-72 h; series mostly up to 96.7 µM
# Procedure, shortened: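 Cytotoxicity is measured as loss of cellular ATP: NIH 3T3 cells (400/well) are exposed to compound for 48 or 72 hr at 37 °C, then CellTiter-Glo luminescence is imaged after 10 min at room temperature.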
# Potency means the concentration at half of the fitted maximal effect; tags describe the fitted curve by direction and shape.
row,Structure (SMILES),Potency
1,Cc1ccc(C)c(-c2cc3c(=O)n(CCNC(=O)c4ccccc4)ccn3n2)c1,"inconclusive: 25.1 µM [inhibitor, partial curve, poor fit]"
2,O=C(NC1CC1)c1cc2n(n1)CC(c1ccc3c(c1)OCO3)OC2 (stereo unspecified),"inconclusive: 50.1 µM [inhibitor, partial curve, poor fit]"
3,CC(C)N1Cc2cc(C(=O)NC3CCN(Cc4ccccc4)CC3)sc2C1,"inconclusive: 44.7 µM [inhibitor, partial curve, poor fit]"
4,Cc1cc(C)c(C)c(S(=O)(=O)N2CCn3c(nn(CC4CC4)c3=O)C2)c1C,"inconclusive: 44.7 µM [inhibitor, partial curve, poor fit]"
5,COc1ccc(C(=O)NC2CCN(c3nccc(Nc4ccccc4F)n3)CC2)cc1,inactive
6,Cc1cccc(N(C)C(=O)Cn2c(N3CCc4ccccc4C3)nc(C)cc2=O)c1,"inconclusive: 44.7 µM [inhibitor, partial curve, poor fit]"
7,Cn1cnc2cc(-c3ccc(F)cc3)cc(C(=O)NCCN3CCOCC3)c21,"inconclusive: 56.2 µM [inhibitor, partial curve, poor fit]"
8,COc1ccc(C(=O)NCc2nnc3cc(-c4nc(C(C)C)no4)ccn23)cc1F,inactive
9,COc1ccccc1CCC(=O)N1C[C@@H](CO)[C@H](N(C)C)C1,inactive
10,CC1(C(=O)Nc2ccc(F)cc2)CN(Cc2ccccc2)Cc2ccc(N3CCOCC3)nc21 (stereo unspecified),"inconclusive: 44.7 µM [inhibitor, partial curve, poor fit]"
11,Cc1ccc(CN2C(=O)OC(c3cccc(NC(=O)c4cccs4)c3)C2C(=O)NC2CC2)cc1 (stereo unspecified),"inconclusive: 50.1 µM [inhibitor, partial curve, poor fit]"
12,CCn1cnnc1-c1nn(C)c2c1CN(C(=O)CCC1CCCC1)CC2,inactive
13,CC(C)(C)OC(=O)N1CC(NCc2cccc(F)c2F)C1,inactive
14,COc1ccc(-c2ccccc2C(=O)NCC2CCCCC2)nn1,inactive
15,Cc1cc(C)c(CNC(=O)c2nc(-c3cccc(CO)c3)cc3c2ccn3C(C)C)c(=O)[nH]1,"inconclusive: 44.7 µM [inhibitor, partial curve, poor fit]"
16,O=[S+]([O-])(c1ccccc1)N1CCN(c2nccc(Nc3ccccc3Cl)n2)CC1,active: 28.2 µM
17,CN1C(=O)c2cccn2CC1CNC(=O)NC1CCCC1 (stereo unspecified),inactive
18,COc1cc(-c2nc3c([nH]2)CC(c2ccccc2OC)CNC3=O)ccc1O (stereo unspecified),"inconclusive: 35.5 µM [inhibitor, partial curve, poor fit]"
19,CCCCCC(=O)Nc1nc2c(s1)C[C@@H]1[C@](C)(CO)[C@H](O)CC[C@@]1(C)[C@@H]2CC(=O)NCCc1ccc(OC)c(OC)c1,inactive
20,CC(C)CCN1CCC(N2CCN(S(=O)(=O)c3ccc4c(c3)CCC4)CC2)C1=O (stereo unspecified),inactive
21,CC[C@H]1CN(C(=O)Nc2cccc(C(F)(F)F)c2)CC[C@H]1CC(=O)O,inactive
22,O=C(c1ccccc1Cl)N1CCCC(C(=O)N2CCC(N3Cc4cccn4C3=O)CC2)C1 (stereo unspecified),inactive

row,Structure (SMILES),Potency
1,Cn1cnc2cc(-c3ccc(F)cc3)cc(C(=O)NCC3CCOCC3)c21,"inconclusive: 112 µM [inhibitor, single point]"
2,C[S+](=O)([O-])N1Cc2ccccc2OC2(CCN(C(=O)c3ccc4[nH]ccc4c3)CC2)C1,inactive
3,Cc1ncsc1CCC(=O)N1CCN(CCCOc2ccc(F)cc2)CC1,"inconclusive: 56.2 µM [inhibitor, partial curve, poor fit]"
4,COc1cccc([S+](=O)([O-])N2CCC(N3C(=O)c4c(c(C)nn4-c4ccccc4)C3C3CC3)C2)c1 (stereo unspecified),"inconclusive: 10 µM [inhibitor, partial curve, poor fit]"
5,COc1ccc(CNC(=O)N2CCCC(CN3CCCC3)CC2)cc1 (stereo unspecified),inactive
6,CCOC(=O)N[C@H]1[C@H](OC(=O)Nc2ccccc2)[C@@H]2O[C@H]1c1ccccc12,"inconclusive: 28.2 µM [inhibitor, partial curve]"
7,CC1(COCC2CC2)COc2ccc(C(=O)Nc3ccc4[nH]ccc4c3)cc2N1 (stereo unspecified),active: 44.7 µM
8,O=C(c1ccncc1)N1CC2CCC(C1)N2Cc1ccc(-c2cccs2)cc1,"inconclusive: 22.4 µM [inhibitor, partial curve, poor fit]"
9,CS(=O)(=O)Nc1ccc(C2(C(=O)NCc3ccc4c(c3)OCO4)CCCCC2)cc1,"inconclusive: 35.5 µM [inhibitor, partial curve, poor fit]"
10,COc1ccc(CNc2cc3c(cn2)CN(Cc2ccccc2)CCN3)cc1OC,active: 39.8 µM
11,CN1CC(=O)N(c2ccccc2F)Cc2c(NCc3cccc(C(F)(F)F)c3)ncnc21,"inconclusive: 44.7 µM [inhibitor, partial curve, poor fit]"
12,Cc1ccc(NC(=O)N2CCCCC2c2nc(CCOCC3CC3)no2)cc1C (stereo unspecified),"inconclusive: 50.1 µM [inhibitor, partial curve, poor fit]"
13,O=C(NCc1ccccc1)c1nc2sccn2c1-c1cccnc1,"inconclusive: 70.8 µM [inhibitor, partial curve, poor fit]"
14,CC(C)NC(=O)N[C@H]1C[C@@H](C(=O)N[C@H](Cc2c[nH]c3ccccc23)C(N)=O)N(C(=O)c2cccn2C)C1,inactive
15,O=C(C[C@@H]1O[C@H](CNS(=O)(=O)c2ccc(Cl)cc2)[C@@H](O)[C@H]1O)NC1CC1,inactive
16,COc1ccccc1Nc1ncc2c(n1)CN(C(=O)Cc1cccc(F)c1)CCN2,"inconclusive: 112 µM [inhibitor, partial curve, poor fit]"
17,O=[S+]1([O-])NC2(CCN(Cc3c[nH]c4ccccc34)CC2)COc2ccccc21,inactive
18,OC1(c2cccc(C(F)(F)F)c2)CCN(Cc2nc(COc3ccccc3)no2)CC1,"inconclusive: 22.4 µM [inhibitor, partial curve, poor fit]"
19,Cc1ccc(-c2cn3c(n2)CO[C@@H](CNCc2ccc(S(C)(=O)=O)cc2)C3)cc1,inactive
20,CCOC(=O)C[C@@H]1C[C@@H](C(C)C)[C@H](CNC(=O)c2ccncc2)C=C1C,"inconclusive: 50.1 µM [inhibitor, partial curve, poor fit]"
21,COc1ccc(C(=O)N2CCN(c3cc(-c4ccc(Cl)cc4)[nH]n3)CC2)cc1F,"inconclusive: 5.62 µM [inhibitor, full curve, poor fit]"
22,Cc1ccc(-c2c(C(=O)NCc3ccccn3)nc3sccn23)cc1,"inconclusive: 28.2 µM [inhibitor, full curve, poor fit]"

row,Structure (SMILES),Potency
1,O=C([C@@H]1C[C@H](F)CN1C(=O)Cc1ccccc1Cl)N1CCCCC1,inactive
2,O=C(Cc1ccc(F)cc1)N1CCC(C(=O)N2CCC(c3nc4ccncc4[nH]3)C2)CC1 (stereo unspecified),inactive
3,COc1cc(F)ccc1-c1cnc2n[nH]c(-c3ccccc3)c2n1,"inconclusive: 56.2 µM [inhibitor, partial curve, poor fit]"
4,Cc1nc2ccc(C(=O)N3CCCC(C)(Cc4ccc5c(c4)OCO5)C3)cc2o1 (stereo unspecified),"inconclusive: 56.2 µM [inhibitor, partial curve, poor fit]"
5,CC(C)c1nc(N2CCCC2)ncc1C(=O)O,inactive
6,CSc1cccc(NC(=O)COc2cccc(-c3nnc4n3CCCC4)c2)c1,inactive
7,COc1ccc(C(=O)N2CCC(Cc3nc(-c4ccc(F)cc4)no3)CC2)cc1F,"inconclusive: 11.2 µM [inhibitor, partial curve, poor fit]"
8,COc1ccc(CNC2(Cc3cc(-c4ccc(OC)cc4)on3)COC2)cc1,"inconclusive: 100 µM [inhibitor, partial curve, poor fit]"
9,COc1ccc(-c2nc(C3CN(C(=O)NCc4ccccc4)C3)no2)cc1,"inconclusive: 6.31 µM [inhibitor, full curve]"
10,O=C(c1c(-c2ccccc2)cc(=O)n2c1CCC2)N1CCCC1,inactive
11,O=C(Cc1ccccc1)NC1CCCc2c1[nH]c1c(Cl)cccc21 (stereo unspecified),active: 35.5 µM
12,COc1cccc(-c2ccc(C(=O)N3CCC(N[S+](=O)([O-])c4c(C)noc4C)CC3)cc2)c1,"inconclusive: 44.7 µM [inhibitor, partial curve, poor fit]"
13,Cc1noc(C)c1[S+](=O)([O-])NC1CCCN(c2ccc3nnc(C)n3n2)C1 (stereo unspecified),"inconclusive: 79.4 µM [inhibitor, single point]"
14,Cc1cccc(CNC(=O)CC2CCOCC2)c1,inactive
15,O=C(Cn1cnnn1)N1CC(c2noc(C3CCCN3CC3CC3)n2)C1 (stereo unspecified),inactive
16,O=C1CC2(CCN(Cc3ccc(C(F)(F)F)cc3)C2)Nc2ccccc2N1 (stereo unspecified),inactive
17,N#Cc1cccc(NC(=O)O[C@@H]2CO[C@H]3[C@@H]2OC[C@@H]3Nc2nccc(-c3cccc(C#N)c3)n2)c1,inactive
18,CC1Oc2ccc(NC(=O)C3CCCC3)cc2CN(Cc2ccccc2Cl)C1=O (stereo unspecified),"inconclusive: 39.8 µM [inhibitor, partial curve]"
19,COc1cccc(CN2CCN3C(=O)N(C4CCCCC4)C[C@H]3C2)c1,"inconclusive: 50.1 µM [inhibitor, partial curve, poor fit]"
20,N#Cc1ccc(S(=O)(=O)N2CC(n3cc(C(=O)N4CCOCC4)nn3)C2)cc1,inactive
21,COc1ccc(-c2noc([C@@H]3CCCN3C(=O)c3ccc(C(C)(C)C)cc3)n2)cc1,"inconclusive: 50.1 µM [inhibitor, partial curve, poor fit]"
22,COc1ccc(-c2noc([C@@H]3C[C@H](NCc4cccc(C#N)c4)CN3C)n2)cc1,"inconclusive: 89.1 µM [inhibitor, partial curve, poor fit]"
